# According to the supplement of paper PMC10185492:
# The other results are listed elsewhere or left out. Values come from read counts of a selection and are noisy.
# System: SARS-CoV-2 3CLpro (nsp5)
# Assay: substrate phage enrichment score (protease-eluted vs HEPES control, +1 offset) (ratio); higher = better cleaved substrate
# Conditions: selection round: 4; protease elution time: 15 min
# Procedure: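 Random heptapeptide substrate phage display (M13 pIII fusion, heptapeptide between an N-terminal biotinylated AviTag GLNDIFEAQKIEWHE and pIII; phages immobilised on streptavidin) eluted by cleavage with 50 nM protease in 20 mM HEPES at 37 °C. Selected phages were NGS sequenced, and the enrichment score is (reads in protease sample + 1)/(reads in HEPES blank-selection control + 1).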
row,Substance,substrate phage enrichment score
1,TKCTGEC,6.11
2,DRADWKH,1.05
3,YHFPAQV,1.33
4,AAAPHHH,1.25
5,RVSNKTT,> 125
6,SAAAQHH,1.46
7,IKCPMLH,> 30
8,QLSRPVH,0.0714
9,PYNVRQT,> 21
10,ESERLPE,> 22
11,SKAARLQ,> 29
12,DPVRDGR,6.6
13,CQMQVRD,0.222
14,VEHGGDT,2.38
15,SSVAAHH,1.84
16,TWDGLLN,2.89
17,ERNVNCS,342
18,CSVLQSH,> 194
19,VNTHGAV,3.67
20,YRNRQQK,2
21,VGPHIII,0.941
22,ETEQNWT,1.8
23,DDHWRQS,0.692
24,SCLNCRQ,> 33
25,AMESPSS,> 87

row,Substance,substrate phage enrichment score
1,EKQSDFT,1.44
2,NPALGTR,> 50
3,SWWQESS,> 25
4,FEKGPSK,11
5,FCENLKK,12
6,VLAEPNC,0.625
7,APAAAHH,1.2
8,SSSTSLR,2.73
9,VWAAPSV,3.29
10,IPSDFMM,1.52
11,PNQQNEA,3.5
12,HHVNQTG,> 52
13,VLPPSPQ,3.27
14,PRVATPT,> 59
15,RAVQLQG,> 43
16,PRNEGVP,1.21
17,NCSRTEE,0.35
18,TPCSLHG,0.647
19,SNPPATR,4.83
20,TPGTLTP,> 54
21,PISSETI,0.211
22,NWKTGHP,> 24
23,SQPLRQV,2.37
24,SRPIWET,> 22
25,TPHSYSP,> 40

row,Substance,substrate phage enrichment score
1,KDVNVNS,> 58
2,CYADATR,5.2
3,QVANGEP,1.36
4,SRKDNSG,1.47
5,SEVSTLH,> 52
6,CNHHHHG,1.08
7,NTQKKGE,> 28
8,VRTEVLE,0.375
9,SHGAMLQ,> 32
10,LKSGGHA,13.3
11,SGHTTLQ,> 114
12,PLMQSKC,2.15
13,SCRFRRI,0.323
14,KNAEHLS,1.3
15,TGSETHS,4.23
16,LNITESQ,1.26
17,LKDSRVS,> 28
18,CRPVSAR,1.55
19,CSLQCAL,17.3
20,TDSTRVK,4.33
21,NLAAHHH,0.421
22,VNSPPAI,1
23,SHVQNTW,77.5
24,SPTILQG,5.75
25,GPTYAEA,8.67

row,Substance,substrate phage enrichment score
1,RVRVTLQ,> 374
2,HYPFLQS,15.7
3,IGSCVMD,3.83
4,CPSTKNR,> 42
5,LNGPAYC,> 22
6,THNNSVK,> 49
7,HPAAHHH,0.422
8,SSSQRLT,> 73
9,GCVNLQA,397
10,STTSTTA,16.3
11,SSSHNMT,35.5
12,ASQGANC,> 31
13,VVRQGCT,0.545
14,GSAAHHH,0.858
15,SGLTHPP,> 42
16,QRTRGPT,0.516
17,RPSGYMT,> 27
18,RCWASAG,1.73
19,GETRLRS,> 27
20,NQAAHHH,1.38
21,VDRMSPL,1.78
22,YHVMDEC,0.733
23,PLCPMQS,> 42
24,TRCQSEA,3.09
25,YPWDIVQ,> 22

row,Substance,substrate phage enrichment score
1,PCLSTVN,0.6
2,QSSTPPK,0.643
3,CLNLPMD,1.43
4,GNRSCTT,> 24
5,TAPSRSG,5.67
6,QSAAHHH,0.94
7,GAGVHLW,2.83
8,YRQPSSR,> 46
9,WQGPRLQ,18.5
10,AIGCTLQ,> 86
11,SKRTELE,> 21
12,ADYMGAV,1
13,SCTHTKP,0.227
14,TPSANRG,2
15,CYDMTRQ,> 25
16,YDCILQS,> 23
17,QVREEQQ,0.846
18,EQGVMRM,> 38
19,SRGTSVL,0.125
20,NSLSPLP,4.5
21,VYYGNGC,> 43
22,VNSEITP,> 28
23,QGERCLP,> 34
24,SRFCRGL,> 24
25,PILPHVM,> 29

row,Substance,substrate phage enrichment score
1,TPIATPQ,5.17
2,CRPAAHH,5.25
3,ISGTVKA,1.46
4,QRTREKN,2.94
5,HTPQCKQ,> 67
6,CSAAAHH,1.05
7,AGEKLTP,> 23
8,KANPRLQ,> 99
9,RRTYCTT,2.92
10,AHPWCSL,0.114
11,QIRNGAT,9
12,VSPAHHH,0.238
13,VPCGYTW,2.18
14,AEGVNHR,> 23
15,REPLTWP,0.6
16,SRMCPSQ,2.67
17,EPCWPAY,> 27
18,TRAPQQQ,1.58
19,WAAAHHH,0.598
20,ECRETRI,> 27
21,SRIQASD,> 24
22,DHHHHGA,0.432
23,SDDRFRQ,4.75
24,NEGRLWM,> 23
25,QSRSQLQ,> 33

row,Substance,substrate phage enrichment score
1,THTGVRP,> 26
2,AFSEPTA,18
3,TDIPALR,> 38
4,LRCHMSS,0.316
5,NQGGSAA,0.833
6,HRHTNLQ,> 40
7,SSTPGNQ,1.5
8,QWPHAKP,> 29
9,RLHDQAG,2.22
10,TRMSDTR,> 31
11,ADRVPYV,> 36
12,EMRISVG,4.75
13,SLPVNLQ,> 233
14,TRGPQVP,> 23
15,SGVCMRK,> 62
16,LESPCQA,1.66
17,AISNDTV,0.217
18,VGYAKLQ,> 42
19,CYISEAD,1.92
20,NASAGSG,6.5
21,KAQSSNE,> 29
22,CNRPASR,0.385
23,RTLTPMV,5.5
24,RPTCHLQ,> 61
25,VNLKHAP,4.89

row,Substance,substrate phage enrichment score
1,LTNVKVH,5.33
2,NWSLSPG,11
3,CFRTSVR,1.4
4,KDAVSFQ,11
5,SANLHGH,> 57
6,YKPGGRT,1.47
7,PSKQTED,7.33
8,DNRRPEY,> 21
9,TESELQG,17
10,EVGPRGP,16
11,SSMDINR,1.27
12,VKAPAFG,> 28
13,RQPCTLQ,> 612
14,IGAAHHH,0.509
15,ESAPHTK,> 27
16,GHTASPA,0.926
17,PQSQYYP,1.26
18,RQEPMNA,> 37
19,RSPWDSR,> 35
20,LQKATGK,22.5
21,RALESKQ,6.75
22,RKDNMIS,> 28
23,EVPNCLQ,> 21
24,TSGGGSH,1.46
25,STLGHSR,> 148

row,Substance,substrate phage enrichment score
1,YLQDNAK,0.857
2,DLWTWGQ,2.44
3,RIWRLDC,> 37
4,QPSACRA,1.22
5,AERECRD,1.08
6,PTCRTVR,> 57
7,CAAAQHH,0.716
8,VMSFPCS,> 22
9,LVRAPYH,4.6
10,SCNCMNC,2.83
11,NRPCHMR,> 25
12,VTKWSEL,> 28
13,TSYGHHR,12
14,QNLKFRP,> 48
15,NSAAHHH,2.1
16,MRGWALQ,1
17,KREALRP,2.75
18,GTHEDPP,> 23
19,GINNTAA,2
20,LNGTVLQ,> 54
21,GLESFQG,> 37
22,GCSSLHG,2
23,GDHTRLQ,> 83
24,EKDVWSR,2.14
25,RTLTVLQ,> 39

row,Substance,substrate phage enrichment score
1,HSQALNG,24.5
2,GALPVLQ,> 38
3,ASRACTQ,> 26
4,LNFNCNS,4.83
5,YTKSGPA,3.14
6,NTRSCLQ,> 233
7,TWQLSCP,3.14
8,NESDGRP,10.5
9,HGSRGWT,> 66
10,KTPSSMQ,> 186
11,SPTPEKG,0.118
12,PLFNHYH,1.92
13,ANCYLKP,> 25
14,QRGVCQC,1.54
15,RFRENLP,> 30
16,VDFQGGS,2.22
17,KTMPRSP,12.5
18,SAASHHH,0.667
19,CSRLQST,45.5
20,RVGPMTQ,12
21,GTHGSQT,0.643
22,PLAAHHH,0.282
23,WSVRACR,2.33
24,SAGMPKR,12
25,PATTVLH,57.5

row,Substance,substrate phage enrichment score
1,IPRTNER,2.14
2,EHSALTV,8
3,ARCCTPE,2.43
4,LSREWPA,23.5
5,MEAAHHH,0.522
6,SQVDSTG,9
7,LRTSTLQ,> 43
8,SMQNEEP,> 32
9,VRRENVR,5.2
10,HAQLMTR,> 23
11,CNVSMPP,> 59
12,ASAAAHH,0.711
13,ESVQIQS,26.5
14,TSRCMNL,> 21
15,LNIRDCP,1.12
16,PCAQYFQ,5.77
17,GNAAAHH,0.467
18,RCVLSCR,> 21
19,NPNDWRV,1.76
20,PNHHHGA,0.423
21,QQGSDFS,1.27
22,VPGQSWR,0.219
23,TRSGGAS,> 31
24,YERSMDG,> 21
25,GRIETKT,0.556

row,Substance,substrate phage enrichment score
1,PFPQMTQ,2.38
2,GSMPQVP,> 21
3,AQVRSIP,2.56
4,DSAAAHH,0.657
5,MTLTDTS,3.62
6,LNAVHLR,11.4
7,SQPSNHK,> 22
8,RLRTTLQ,> 66
9,HVPRQIE,13.5
10,AIDAEYR,> 22
11,EYATDSS,9.67
12,TRHTTLQ,> 25
13,STRLMCQ,10.5
14,DTPTNVR,1.2
15,PHRCTFQ,> 28
16,PATAHHH,2.29
17,ICCATSG,> 38
18,HHTTAQS,3.6
19,PRSEEHC,> 31
20,PQKLRDP,0.0541
21,TKHSRTH,0.789
22,AQQGVTR,1.75
23,TRNGSGI,0.5
24,TSGYLSE,7.29
25,AADANLG,> 32

row,Substance,substrate phage enrichment score
1,VSRDMPG,0.205
2,SLTSEIG,> 23
3,AENTLLQ,> 21
4,STEHNIR,> 21
5,SCCTQPG,> 29
6,LKGSSKL,> 23
7,QQCPLDA,13
8,KYSNGKY,0.65
9,SRWGRCR,1.18
10,PRSSQVG,> 30
11,SWCTVPA,> 25
12,SSSLPNR,4.75
13,RPGLHLE,3.25
14,GEAAHHH,0.642
15,AWRPEAG,> 22
16,DRAAAHH,0.289
17,KGLICRP,0.172
18,DPQRNSR,4.83
19,ARVKLRN,17.5
20,PVRQSTG,2.67
21,VIECYMM,1.45
22,PNYTGHT,0.846
23,SPRHSVR,2
24,ANRSQWQ,4.8
25,TCGTPKK,2.58

row,Substance,substrate phage enrichment score
1,TRWVHGT,11.3
2,TRARCSG,1.31
3,ALLQANK,> 350
4,SSAHHHH,0.265
5,TTYMSPR,10
6,VTGDCRE,> 24
7,LMQSPSR,9
8,TTRDPAR,> 27
9,VLIQCGP,4
10,QHGSIGR,11.7
11,RAAAQHQ,0.667
12,SRDNSIP,28
13,NPNGLIR,2.14
14,ASGNIGS,0.423
15,AETHQAT,> 29
16,RQRSCLQ,> 67
17,PGLFLRD,1.18
18,TYFQGGS,2.55
19,LGLPNLQ,28.3
20,GALYKPA,1.54
21,HGNGSLH,3.4
22,ESLKNPH,1.89
23,REEVCAR,0.289
24,RTSGVRE,7.25
25,SQIGDET,1.04

row,Substance,substrate phage enrichment score
1,TAPSMPA,0.353
2,CVYRTNG,1.18
3,INVNIRP,> 49
4,NSTCPLT,0.0741
5,DVNVSEQ,> 49
6,YGLMNRG,2.6
7,SFGTQLQ,> 48
8,ATRLQAV,> 351
9,KQNTRLP,0.571
10,TSSRNPR,1
11,VHRNPLS,0.952
12,WRRTPAA,> 56
13,AKVSRWG,> 31
14,IRESKLN,2.33
15,CGPSRVP,> 22
16,DDDKSPL,> 25
17,SENAVAQ,19.5
